Read counts are not given, so values of variants with three or more changes are uncertain.

B1: LINE1-mini (parent)
chain: GGCAGAGCUCAACACAGCGUGGCAAAGUGGCUGUGGCUAGACUGCC

Variants of B1 are the subject of the data set. In words: self-cleavage, relative activity (ratio to wild type); higher = more cleavage; in vitro, sequencing; the parent is a self-cleaving ribozyme.
On to G5A A6U C10A G22C U34A, for which the self-cleavage was 0.

Turning to U9G A25G G30C, the self-cleavage was found to be 0.03. A4U C10A C46U: the self-cleavage came out at 0. With G2C A14C A24U C37A U43A, the self-cleavage stood at 0. As for C18G A26U G27C U32G C42U, the figure is 0.01; as for G21U G29U C31A U38G, 0.01; as for A4G C15G U32G U34C A39G, 0.05. In the case of U20C A24C U28G C42G, the self-cleavage was 0.01. To A11U C23U G35U belongs 0.01; to G1C G17A A24U A26C C46A, 0.07. As to A6G C8U A12G G40A, the self-cleavage is 0.19. Regarding G7C A26C G29A, the self-cleavage was found to be 0.14.

With A16C C18G G36U, the self-cleavage is 0.15.

Turning to G22A A41C C45A, the self-cleavage was 0.12.

As to G7U C8A A26C G30U, the self-cleavage worked out at 0.1. On to A6C U9A G30C C37G, for which the self-cleavage came out at 0.02. Consider G2U G30C G40A, for which the self-cleavage was 0. In the case of G7U A25G G33C U43A, the self-cleavage came to 0.02. With C3A A14U A16C C23A A26U, the self-cleavage was found to be 0.12.

Take A14C G33C G40C: the self-cleavage was found to be 0.01. On to C18A G19U G27A G40U A41C C42U, for which the self-cleavage is 0.11. Take U9A C15G G27A: the self-cleavage stood at 0.01. With A12C A14C G17U C37A A41G, the self-cleavage was determined as 0. As for G5U G40U C45A, the figure is 0.04; as for A6G C10A G17U G29U C37G A39C G40U A41C U43C, 0. Turning to U20A U34C G35U, the self-cleavage was found to be 0.06. With U34G C37G C45A, the self-cleavage was 0.03. With C10G A16U G36C, the self-cleavage amounted to 0.03. As to A4C A6U A11G G40A, the self-cleavage came out at 0.03. As for G2U C3A C23A G27U, the figure is 0.48; as for A6U A25G C45U C46A, 0.01; as for A16C U20C U28A G44U, 0.05.

With U20G G30A C42U, the self-cleavage was 0.4. Consider C10U A11G C18U U20A A25C G29A U43C, for which the self-cleavage was determined as 0.

As to A6G G30C U43G C45U, the self-cleavage was 0.34. For the variant C3A U34C G36U, the self-cleavage came to 0.21. To C8U G17U C37A belongs 0.13.

With G1A A14G U28C C31A G36U C46G, the self-cleavage was 0.25. In the case of G5U A12G A26G G33A, the self-cleavage is 0.02. Consider G1A G7C A14G C15A G36C, for which the self-cleavage is 0.39. As for G1A G17A C31A, the self-cleavage was 0.04.

As to U9A G22C A24G G35U A41C, the self-cleavage stood at 0.06. As for U9A C10G C15U A16U G17A U38G, the self-cleavage is 0.01.

Regarding A6G A11U A24G, the self-cleavage came out at 0.03. As to C15A G22U A24G, the self-cleavage is 0.45. As for A11U C18U A24C C31A G44U C45A, the figure is 0.01. G5U U9C U32A: the self-cleavage stood at 0.04. Regarding A4U U9C G33U, the self-cleavage turned out to be 0.04. As for C15U A25C G29U, the figure is 1.75; as for A4U A25U G27U U32G, 0.08. Regarding G7C A41U G44A, the self-cleavage came out at 0.14. Take C8G C31A G36U: the self-cleavage was 0.8.

For A4G G5U G29A C37A, the self-cleavage is 0.06. For the variant G19U G21A G27U G40U, the self-cleavage turned out to be 0.05. For the variant U9G A12C C13A G30C C37A, the self-cleavage stood at 0.01.

For the variant A6U C15A G29C C31G G35A G40U, the self-cleavage is 0.1. With G17U G27U G40C C42U C46G, the self-cleavage amounted to 0.07. Turning to A11C A14G A39U, the self-cleavage turned out to be 0.02.

As for C15A A16G U38G A41U, the self-cleavage is 0.01.

On to G5C G17A U38C, for which the self-cleavage was determined as 0.09. As for A14G C15A G33A, the figure is 0.04; as for A12U C13A G19U C31A C42A, 0.08; as for G1C G27C U32C A41C U43C, 0.01. As for C13U G27A U34A C42A, the figure is 0.07; as for A6U A16G C18A G19A, 0.04. For the variant G22U G40U U43C, the self-cleavage came to 0.1. With G1A C31A G44A, the self-cleavage worked out at 0.03. As for U9G U20G A24G, the figure is 0.05; as for C13A G17C C31U U43A, 0.07; as for C3A A11G U34C, 0.09. Take G21A G29U G40C: the self-cleavage stood at 0.26. As to G2A C23G A41G, the self-cleavage came out at 0.33. As for G2U G5U C18A G44U, the figure is 0.01; as for A6U G27C U34C, 0.12; as for G1A G2U A25G G30U C37U, 0.06. Consider C8U U9C G17U G27A U28A U32C, for which the self-cleavage was 0.06. As for C10G A11C G35C A39C, the self-cleavage is 0.01.

For G7A C18U G36A C45A, the self-cleavage is 0.09. G17U A25C G29U: the self-cleavage was 0.34.

As to G5C G27C A39G, the self-cleavage was found to be 0.07. Regarding A6C G27A C37U, the self-cleavage came to 0. As for C8A U9G C10G A12C U20G C46U, the figure is 0.01; as for C13U G17U G27C C42G U43G, 0.01.

C3U G19C C37G C42G: the self-cleavage is 0.01.

With G5U G19U A25C C31A, the self-cleavage came out at 0.01. In the case of G2C C13U G17U U28A C37U C45U, the self-cleavage was 0.01. To G2U C8A U9C G17U G44A belongs 0.05; to A12C A26U U28A C46U, 0.01.

As to C3A C10A G44C, the self-cleavage was 0.07.

In the case of C3A A4U G30A, the self-cleavage was found to be 0.54. Regarding G2A C3G C15A, the self-cleavage came to 0.12. As for A24G G27U C37A, the figure is 0.04; as for A14C A24U A25C C31G U38C C45G, 0.01.

Take C15A G17A G27C C45A: the self-cleavage was 0.02.

Regarding C23G U32C G35A, the self-cleavage is 0.05. Take G2C C3U C46A: the self-cleavage came to 0.04. As to A11U G30U G35A G36U C45A, the self-cleavage came out at 0.02. In the case of U9A G27U U38A G40A, the self-cleavage is 0.13. As for A16U C18A G27C U43C, the figure is 0.15. With A6U G7C A11U G19A A24G U38G C42G, the self-cleavage is 0.01. Consider G7A A14G C31U, for which the self-cleavage turned out to be 0.04. Turning to C23U G30U U32G C45U, the self-cleavage was 0.05. G5U U9C C31A: the self-cleavage was 0.03.

Take C3U C13A A16G: the self-cleavage turned out to be 0.04.

For the variant A6U C10A G27U U32A C37U U43C G44U C45G, the self-cleavage amounted to 0.01. As for G5A G27C U34C G40A, the figure is 0.17. To C3A C18G C31U belongs 0.03. With A14G U20A U28G C42G, the self-cleavage worked out at 0.03. Regarding G5A A41U C45A, the self-cleavage turned out to be 0.08. Turning to C31G G35C C46U, the self-cleavage worked out at 0.06. As for A11U A16U U28A, the self-cleavage is 0.01.

For the variant A16C A26C A39G, the self-cleavage amounted to 0.04.

Turning to G1C A11G U38C C42U C45A, the self-cleavage is 0.02. Turning to C8G C23A G40A, the self-cleavage is 0.04. A25G C37U C45G: the self-cleavage turned out to be 0.01. With C3A G5U C8U C46A, the self-cleavage was found to be 0.08. As to U28G G29A C46A, the self-cleavage came to 0.44. For C15A U28A G44U, the self-cleavage is 0.01. As to A12G A16C C18A G22U U38C C45G, the self-cleavage came out at 0. For the variant G7A C10G A14C C15A G21U C37U, the self-cleavage amounted to 0.02. C3U C18U G33A C37G: the self-cleavage turned out to be 0.02. For A12G A14U C23G A26U G27C, the self-cleavage was 0.04.

Take C23U G33A U34G A39U G40U: the self-cleavage was 0.03. Turning to A4U U28C G40U, the self-cleavage worked out at 0.09. As to A12U C15A U32C C37A U38G A39G, the self-cleavage came to 0. Consider G2C C13A A25G A39U G44C, for which the self-cleavage worked out at 0.09. As for C3A C8A A14G C18A U34C, the self-cleavage was determined as 0.33. With A16C G29U C42U, the self-cleavage was determined as 0.04. G7A U28A G36U C37A: the self-cleavage is 0.07. For the variant C10G G17A A24U G27C G29U, the self-cleavage was 0.01. On to G17A G19U G36U A39G C42G, for which the self-cleavage worked out at 0.02. Consider A6G A14U C42U, for which the self-cleavage was found to be 0.06. Regarding C13U U34G G35U G44U, the self-cleavage was determined as 0.05. To C18A U20A G33C G36C belongs 0.01. G2U G5A A12U C13A C23A: the self-cleavage turned out to be 0.05. As for G5U U34A C42A, the figure is 0.04; as for C15A U28C G40A C42U, 0.

As for G7C C8A U9G U20G A41U, the self-cleavage turned out to be 0.01. As to G2U A11U G27U, the self-cleavage stood at 0.

For A25G C42A U43A, the self-cleavage was found to be 0.01.

For the variant G2U U9G C13A C15G U34A C45G, the self-cleavage amounted to 0.04.

For the variant A16U G19C G22U A39U A41U, the self-cleavage is 0.14.

As to G7A A25C U28C, the self-cleavage is 0.04. For G5C A12C U28C, the self-cleavage turned out to be 0.03.

On to G22A U28C C42U, for which the self-cleavage stood at 0.05. For A4G U38G A39U, the self-cleavage was determined as 0.31. C23U U32G C37G C45A C46G: the self-cleavage stood at 0.03. For G2U G7U G22U C45U, the self-cleavage was determined as 0.1. Take U20G U34A C45U: the self-cleavage is 0.01.

Consider C3A C18G U28A G33C, for which the self-cleavage was 0.18. In the case of A26U G30C C42U, the self-cleavage was 0.08.

For the variant G5U A11G U28A U38C A41C C42A, the self-cleavage amounted to 0.

Consider G2U G5A G36C C46G, for which the self-cleavage came out at 0.05.

On to A4U C10U U28A, for which the self-cleavage came to 0.09. Regarding C10A U20A C46A, the self-cleavage was 0. To G22C G30U C45U belongs 0.66; to G1A A12G U20C A25C U28A A41G, 0.01; to U9G G19A U20G A26G A39U, 0.29. Regarding G2A C42U G44A, the self-cleavage amounted to 0.39. On to G5C C10U C13A G35C G36C, for which the self-cleavage worked out at 0.01.

Take G1A A11G A12U A14G G22A: the self-cleavage amounted to 0.04.

Regarding C18U A25G G30C, the self-cleavage came out at 0.12. For G21A G22U G30A C37G, the self-cleavage is 0.04.

Take G17A G30C U32A C42A U43A: the self-cleavage was found to be 0.03.

On to G5A C15A G29A G40A, for which the self-cleavage came out at 0.01. To C10G C13U G33U C37G belongs 0.03; to G7C A12G G22A G44C, 0.01.
